{
  "source": "PubChem BioAssay AID1030",
  "about": "(National Center for Advancing Translational Sciences (NCATS), 2008)",
  "note": "In all, about 220,000 compounds went through this assay and about 16,000 (7.3%) were called active. Inconclusive means that the source gave no clear call. Such entries were picked first, then a sample of the others. Calls come from the whole dose curve; as a rule, active = well fitted inhibition curve with a large enough effect (not every such curve was filed as active); inconclusive = small, poorly fitted or top-dose-only effect, or another doubt; inactive = no such curve, though single readings can be large or run the other way. No potency is given beside an inconclusive call; the fits are too rough. Potency is the fitted concentration of half-maximal effect; tags give direction and shape of the fitted curve.",
  "data": [
    {"biological_target": "Aldehyde dehydrogenase 1A1 (Homo sapiens) (UniProt P00352)", "sequence (P00352 whole entry, looked up)": "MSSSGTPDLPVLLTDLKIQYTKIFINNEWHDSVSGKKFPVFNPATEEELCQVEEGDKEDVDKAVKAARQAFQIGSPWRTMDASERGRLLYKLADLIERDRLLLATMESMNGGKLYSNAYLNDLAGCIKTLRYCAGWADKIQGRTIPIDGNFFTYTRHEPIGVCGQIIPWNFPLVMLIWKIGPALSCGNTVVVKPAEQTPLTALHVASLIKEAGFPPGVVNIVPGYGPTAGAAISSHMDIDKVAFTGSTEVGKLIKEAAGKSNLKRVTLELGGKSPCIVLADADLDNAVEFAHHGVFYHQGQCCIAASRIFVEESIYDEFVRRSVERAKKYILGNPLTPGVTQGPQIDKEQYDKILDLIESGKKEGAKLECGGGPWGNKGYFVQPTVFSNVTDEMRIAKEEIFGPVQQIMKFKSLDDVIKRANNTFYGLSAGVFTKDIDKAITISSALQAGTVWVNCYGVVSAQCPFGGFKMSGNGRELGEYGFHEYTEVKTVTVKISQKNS", "assay": "qHTS Assay for Inhibitors of Aldehyde Dehydrogenase 1 (ALDH1A1)", "conditions": "Purified ALDH1A1, NADH fluorescence, propionaldehyde substrate; series mostly up to 75.3 µM", "values": [
      {"smiles": "C=C(C)CNC(=S)NNC(=O)c1ccco1", "Potency": "inactive"},
      {"smiles": "Cc1cc(C)n(-c2nc(NCC(C)O)c3c4c(sc3n2)CCCC4)n1", "note": "(stereo not given)", "Potency": "inconclusive [inhibitor, partial curve]"},
      {"smiles": "O=C(Nc1ccc2oc(-c3cccnc3)nc2c1)c1ccc2c(c1)OCCO2", "Potency": "inconclusive [inhibitor, single point]"},
      {"smiles": "CC1CCCN(c2nc3c(c(=O)n(C)c(=O)n3C)n2CCSc2nc3ccccc3o2)C1", "note": "(stereo not given)", "Potency": "inconclusive [inhibitor, single point]"},
      {"smiles": "CCOC(=O)C1NN=C(C(=O)c2ccccc2)C1c1ccccc1", "note": "(stereo not given)", "Potency": "inconclusive [inhibitor, single point]"},
      {"smiles": "COc1ccc(NC(=O)c2cc(-c3cccc(OC)c3)on2)cc1", "Potency": "inconclusive [inhibitor, partial curve, poor fit]"},
      {"smiles": "CCn1c(SCC(=O)c2ccc(F)cc2)nnc1-c1ccoc1C", "Potency": "active: 22.4 µM"},
      {"smiles": "COc1ccccc1Nc1nc(C)c(C(=O)Nc2ccccc2)s1", "Potency": "inconclusive [inhibitor, single point]"},
      {"smiles": "CCN(CC)c1nc(N)c2c(N)nc3c(c2c1C#N)CC(c1ccccc1)O3", "note": "(stereo not given)", "Potency": "inconclusive [inhibitor, partial curve]"},
      {"smiles": "O=C(COC(=O)c1cccc(S(=O)(=O)N2CCN(c3ccccc3)CC2)c1)NCc1ccco1", "Potency": "inactive"},
      {"smiles": "CCOC(=O)C1CCN(c2cc(=O)n(Cc3ccc(F)cc3)c(=O)[nH]2)CC1", "Potency": "inconclusive [inhibitor, single point]"},
      {"smiles": "CCOC(=O)c1c(NC(=O)CSc2nnnn2C)sc(C)c1C", "Potency": "inconclusive [inhibitor, partial curve, poor fit]"},
      {"smiles": "CCN1CCc2c(C#N)c(N3CCCCC3)nc(N3CCOCC3)c2C1", "Potency": "inconclusive [inhibitor, partial curve]"},
      {"smiles": "CCCC[C@@H]1C[C@H]1C(NC(=O)c1ccco1)c1ccccc1", "note": "(stereo not given in full)", "Potency": "active: 25.1 µM"},
      {"smiles": "O=C(Nc1ncc(Cc2ccccc2)s1)c1cccs1", "Potency": "inconclusive [inhibitor, single point]"},
      {"smiles": "CCCCN1C(=O)N(c2nnc(C(C)(C)C)s2)C(O)C1c1ccc(C)cc1", "note": "(stereo not given)", "Potency": "inconclusive [inhibitor, single point]"},
      {"smiles": "Cc1ccc(C(=O)NCCSc2c(C)[nH]c3ccccc23)cc1[N+](=O)[O-]", "Potency": "inconclusive [inhibitor, partial curve]"},
      {"smiles": "Cc1ccc(C(=O)OCC(=O)c2c[nH]c3ccccc23)cc1S(=O)(=O)N1CCCCC1", "Potency": "inactive"},
      {"smiles": "CCC(C)(C)n1nnnc1CN(Cc1cc2cc(OC)c(OC)cc2[nH]c1=O)C1CCCC1", "Potency": "inconclusive [inhibitor, partial curve]"},
      {"smiles": "CCN1CCN(c2ccc([N+](=O)[O-])cc2C(=O)c2ccc(Cl)cc2)CC1", "Potency": "inconclusive [inhibitor, partial curve, poor fit]"},
      {"smiles": "COC(=O)c1sccc1NC(=S)N1CCC(C)CC1", "Potency": "active: 20 µM"},
      {"smiles": "CCN(CC)c1ccc(/C=C2/C(=O)ON=C2C)cc1", "Potency": "active: 1.5 µM"},
      {"smiles": "CCC1(CC)Cc2ccccc2-c2nc(CN3CCOCC3)[nH]c(=O)c21", "Potency": "inconclusive [inhibitor, partial curve]"},
      {"smiles": "Cc1ccc(S(=O)(=O)Nc2ccccc2C(=O)O)c(C)c1", "Potency": "inconclusive [inhibitor, partial curve]"},
      {"smiles": "CN(Cc1ccccc1)S(=O)(=O)c1ccc(C(=O)Nc2nnc(C3CC3)o2)cc1", "Potency": "inactive"},
      {"smiles": "COc1ccccc1-n1c(SCC(=O)NCc2ccc3c(c2)OCO3)nc2cc([N+](=O)[O-])ccc21", "Potency": "active: 1.12 µM"},
      {"smiles": "O=C(Nc1ccc(-c2noc(CCc3ccccc3)n2)cc1)c1ccco1", "Potency": "inconclusive [inhibitor, single point]"},
      {"smiles": "COc1ccccc1-n1c(CNC(=O)c2ccco2)nnc1SCC(=O)Nc1ccc(F)cc1", "Potency": "inconclusive [inhibitor, single point]"},
      {"smiles": "CCC(C)n1c(=S)[nH]c2ccccc2c1=O", "note": "(stereo not given)", "Potency": "inactive"},
      {"smiles": "COc1ccc(NS(=O)(=O)c2cccc(NC(=O)NC3CCCCC3)c2)cc1", "Potency": "inconclusive [inhibitor, partial curve]"},
      {"smiles": "CCCCOC(=O)CCc1nc2ccccc2[nH]1", "Potency": "inconclusive [inhibitor, single point]"},
      {"smiles": "COC(=O)c1cccc(NC(=O)CN2CCC(NC(=O)c3cc(OC)c(OC)c(OC)c3)CC2)c1", "Potency": "inconclusive [inhibitor, single point]"},
      {"smiles": "Cc1ccc(OCCCn2ccnc2)c([N+](=O)[O-])c1", "Potency": "inconclusive [inhibitor, single point]"},
      {"smiles": "Nc1ccc2[nH]ncc2c1", "Potency": "inconclusive [inhibitor, single point]"},
      {"smiles": "Cc1[nH]nc2c1C(c1ccc(F)cc1)C1=C(CC(C)(C)CC1=O)N2", "note": "(stereo not given)", "Potency": "inconclusive [inhibitor, single point]"},
      {"smiles": "COc1ccc(-n2c(C)nn(CC3CC3)c2=O)cc1", "Potency": "inactive"},
      {"smiles": "Cc1ccc2nc(N(CCCN(C)C)C(=O)c3ccc(S(=O)(=O)N(C)C)cc3)sc2c1", "Potency": "inactive"},
      {"smiles": "COc1ccc(C(N)=S)c(OC)c1", "Potency": "active: 12.6 µM"},
      {"smiles": "Cc1sc2nc(C(C)Sc3n[nH]c(N)n3)[nH]c(=O)c2c1C", "note": "(stereo not given)", "Potency": "inconclusive [inhibitor, single point]"},
      {"smiles": "Cc1cc(C(=O)OCc2nc3ccccc3s2)c(C)o1", "Potency": "inconclusive [inhibitor, single point]"},
      {"smiles": "COc1ccc(-c2c(C)oc3c(CN4CCCCC4C)c(O)ccc3c2=O)cc1OC", "note": "(stereo not given)", "Potency": "inconclusive [inhibitor, partial curve]"},
      {"smiles": "Cc1ccc(NC(=O)/C(Cl)=C\\c2ccccc2)cc1", "Potency": "active: 3.98 µM"},
      {"smiles": "O=c1nc(Nc2cccc(Cl)c2)oc2cc(Cl)oc(=O)c12", "Potency": "inconclusive [inhibitor, single point]"},
      {"smiles": "O=C(c1ccc(NC(=S)NCc2ccc(Cl)cc2)cc1)N1CCCCC1", "Potency": "inconclusive [inhibitor, full curve]"},
      {"smiles": "COc1ccc(NC(=O)c2cc(=O)[nH]c(=O)[nH]2)cc1S(=O)(=O)Nc1ccccc1Cl", "Potency": "inactive"},
      {"smiles": "Cc1cccc(NC(=O)CSc2nnc(CNC(=O)c3ccc(S(=O)(=O)N(C)C)cc3)n2-c2ccc(F)cc2)c1", "Potency": "inconclusive [inhibitor, partial curve]"},
      {"smiles": "O=S(=O)(c1ccc(F)cc1)N1CCN(c2nc(-c3ccc(F)cc3)cs2)CC1", "Potency": "inconclusive [inhibitor, single point]"},
      {"smiles": "O=C(c1ccc2c(=O)n(C3CCCC3)c(=S)[nH]c2c1)N1CCCCCC1", "Potency": "inconclusive [inhibitor, partial curve]"},
      {"smiles": "O=C(N/N=C(\\c1ccccc1)c1ccccn1)c1cccc([N+](=O)[O-])c1", "Potency": "active: 17.8 µM"},
      {"smiles": "Cc1[nH]c2ccccc2c1SCC(=O)N1CCCc2ccccc21", "Potency": "inconclusive [inhibitor, single point]"},
      {"smiles": "O=C(N/N=C/c1cccc(O)c1)c1csc2ccccc12", "Potency": "inconclusive [inhibitor, single point]"},
      {"smiles": "Cc1cc(C(=O)O)cc(S(=O)(=O)N2CCOCC2)c1C", "Potency": "inactive"},
      {"smiles": "CN1C=CC=C/C1=C1\\SC(=S)N(CC(=O)O)C1=O", "Potency": "inconclusive [inhibitor, single point]"},
      {"smiles": "COCCn1c(=O)c(-c2cc(F)cc(F)c2)nc2cnc(N3CCN(C)CC3)nc21", "Potency": "inconclusive [inhibitor, partial curve]"},
      {"smiles": "C[N+]1(CCCOC(=O)C2(c3ccccc3)CCCC2)CCOCC1", "Potency": "inactive"},
      {"smiles": "O=C(Nc1ccncc1)c1cc(-c2ccccn2)nc2ccccc12", "Potency": "inactive"},
      {"smiles": "O=C(NC1CCCCC1)C(c1ccc2ncccc2c1)N(Cc1ccc2c(c1)OCO2)C(=O)c1ccc2c(c1)OCCO2", "note": "(stereo not given)", "Potency": "active: 28.2 µM"},
      {"smiles": "NNC(=O)c1cc(O)c(O)c(O)c1", "Potency": "active: 25.1 µM"},
      {"smiles": "CS(=O)(=O)NCCSCc1ccco1", "Potency": "inconclusive [inhibitor, single point]"},
      {"smiles": "CCn1c(O)c(C(C#N)=C2N=c3ccccc3=N2)c2ccccc21", "Potency": "inconclusive [inhibitor, single point]"},
      {"smiles": "CC(=O)N1CCN(c2ccc(NC(=S)NC(=O)COc3ccc(C(C)(C)C)cc3)cc2)CC1", "Potency": "active: 18.9 µM"},
      {"smiles": "C=C(C)COc1ccc(-c2nc(N)ncc2-c2ccc(OC)cc2)c(O)c1", "Potency": "inconclusive [inhibitor, single point]"},
      {"smiles": "Nc1c(C(=O)NCCN2CCOCC2)c2nc3ccccc3nc2n1-c1ccccc1", "Potency": "inconclusive [inhibitor, partial curve]"},
      {"smiles": "CCCCNC(=O)[C@@H]1Cc2ccccc2N1C(=O)[C@H](N)CC", "Potency": "inconclusive [inhibitor, partial curve]"},
      {"smiles": "CC1=NN(C(N)=S)C(=O)C1N=Nc1c(C)cc(C)cc1C", "note": "(stereo not given)", "Potency": "inactive"},
      {"smiles": "COc1cc(/C=C2/C(C)=C(C#N)c3nc(N)c(C#N)c(C)c32)ccc1OCC(=O)O", "Potency": "inconclusive [inhibitor, partial curve]"},
      {"smiles": "O=C(CN(c1ccccc1)S(=O)(=O)c1ccccc1)NCCSCc1ccco1", "Potency": "active: 10 µM"},
      {"smiles": "COc1ccc(-n2cc(CNCC3CCOCC3)c(-c3cccc(F)c3)n2)cc1", "Potency": "inconclusive [inhibitor, partial curve]"},
      {"smiles": "COc1ccc(C(=O)n2c(SC)nc3cc4c(cc32)OCCO4)cc1", "Potency": "inconclusive [inhibitor, single point]"},
      {"smiles": "Nc1ccccc1SCc1ccccc1Cl", "Potency": "inactive"}
    ]}
  ]
}
